Measured values taken from publication PMC12891993, “Bio-orthogonal chemistry-based strategy to Turn-OFF CRISPR-Cas9 activity in solution and live cells” (NAR Molecular Medicine, 2026).
Residues, ends and D or L forms follow the SMILES beside them. *: point of attachment. X1 = O=C(COC1CC/C=C/CCC1)*

Assays:
[1] = system: sgRNA–Cas9 complex (Tz-tagged sgRNA1); assay: Impact of TCO-modified CRISPR suppressors on Cas9-enabled nuclease activity, linearized pBR322 plasmid; format: biochemical; details: 16 h, duplicate
Experimental: Upon completion of their synthesis, the TCO-modified CRISPR suppressors were assessed for their ability to control the Cas9-assisted nuclease activity of sgRNA1-(U4Tz1) and sgRNA1-(U4Tz2). […] In parallel, the same experiments were done in the presence of the TCO-modified CRISPR suppressors. The gel data were quantified and plotted as a bar graph in Fig. 7B.

[2] = biological target: sgRNA–Cas9 complex (sgRNA2 and Tz-tagged sgRNA2) (Streptococcus pyogenes serotype M1, UniProt Q99ZW2); assay: Impact of TCO-modified CRISPR suppressors on Cas9-enabled nuclease activity, linearized eGFP-N1 plasmid; format: biochemical; details: 16 h, duplicate
Text: The gel data were quantified and plotted as a bar graph in Fig. 8B. […] In a control experiment, we tested the impact of TCO-modified CRISPR suppressors on the activity of the unmodified sgRNA2 (Supplementary Fig. S12). […] Inactivation of Tz-tagged sgRNAs can be best achieved using either TCO-CPP-RRWQW or TCO-CPP-RLRWR.

[3] = suppressor added to Cas9 + sgRNA1-(U4Tz1) + linearized pBR322 plasmid
[4] = suppressor added to Cas9 + sgRNA1-(U4Tz2) + linearized pBR322 plasmid
[5] = suppressor added to Cas9 + sgRNA2-(U4Tz1) + linearized eGFP-N1 plasmid
[6] = suppressor added to Cas9 + sgRNA2-(U4Tz2) + linearized eGFP-N1 plasmid

UniProt Q99ZW2, sequence (Q99ZW2 whole entry): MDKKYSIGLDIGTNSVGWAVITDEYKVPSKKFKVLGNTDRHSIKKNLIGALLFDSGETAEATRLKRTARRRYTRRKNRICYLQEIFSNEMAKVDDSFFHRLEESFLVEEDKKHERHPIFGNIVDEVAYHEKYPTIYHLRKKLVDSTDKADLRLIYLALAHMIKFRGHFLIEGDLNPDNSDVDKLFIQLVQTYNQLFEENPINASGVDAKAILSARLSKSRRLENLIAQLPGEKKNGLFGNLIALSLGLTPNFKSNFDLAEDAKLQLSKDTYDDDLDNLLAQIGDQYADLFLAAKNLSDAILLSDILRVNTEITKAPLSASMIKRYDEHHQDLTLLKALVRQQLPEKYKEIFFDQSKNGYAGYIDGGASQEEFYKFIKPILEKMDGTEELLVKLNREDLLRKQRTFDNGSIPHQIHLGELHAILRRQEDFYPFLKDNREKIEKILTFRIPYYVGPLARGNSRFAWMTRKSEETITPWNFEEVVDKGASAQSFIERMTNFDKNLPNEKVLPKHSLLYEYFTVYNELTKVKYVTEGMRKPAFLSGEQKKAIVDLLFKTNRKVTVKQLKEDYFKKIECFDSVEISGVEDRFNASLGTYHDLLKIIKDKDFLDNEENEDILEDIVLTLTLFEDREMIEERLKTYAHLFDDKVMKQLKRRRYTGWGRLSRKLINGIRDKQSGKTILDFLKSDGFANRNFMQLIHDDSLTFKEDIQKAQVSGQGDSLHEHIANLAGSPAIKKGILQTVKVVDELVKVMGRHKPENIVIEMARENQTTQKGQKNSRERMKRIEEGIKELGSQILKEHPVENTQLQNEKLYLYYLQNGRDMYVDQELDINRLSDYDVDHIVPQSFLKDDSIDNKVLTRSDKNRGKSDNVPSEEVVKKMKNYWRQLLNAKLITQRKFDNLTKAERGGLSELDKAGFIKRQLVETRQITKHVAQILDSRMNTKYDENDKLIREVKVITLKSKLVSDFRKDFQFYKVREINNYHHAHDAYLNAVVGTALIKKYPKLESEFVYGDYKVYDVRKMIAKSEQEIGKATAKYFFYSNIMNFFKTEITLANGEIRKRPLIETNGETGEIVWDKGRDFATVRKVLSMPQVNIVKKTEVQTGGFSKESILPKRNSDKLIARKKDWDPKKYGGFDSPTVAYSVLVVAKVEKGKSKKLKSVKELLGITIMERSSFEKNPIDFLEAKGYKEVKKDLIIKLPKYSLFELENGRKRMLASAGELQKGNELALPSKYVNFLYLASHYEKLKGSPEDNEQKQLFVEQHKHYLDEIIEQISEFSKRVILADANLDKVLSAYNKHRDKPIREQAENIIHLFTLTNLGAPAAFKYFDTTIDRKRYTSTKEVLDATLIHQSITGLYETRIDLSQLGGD

| Structure (SMILES) | residual nuclease activity [1, 3] | residual nuclease activity [1, 4] | residual nuclease activity [2, 5] | residual nuclease activity [2, 6] |
| --- | --- | --- | --- | --- |
| CC(C)C[C@H](NC(=O)[C@H](CCCNC(=N)N)NC(=O)COC1CC/C=C/CCC1)C(=O)N[C@@H](CCCNC(=N)N)C(=O)N[C@@H](Cc1c[nH]c2ccccc12)C(=O)N[C@@H](CCCNC(=N)N)C(=O)O (some centres unmarked) [TCO-CPP-RLRWR] (X1-RLRWR-OH) | completely inhibited activity | completely inhibited activity | completely inhibited nuclease activity | completely inhibited nuclease activity |
| N=C(N)NCCC[C@H](NC(=O)COC1CC/C=C/CCC1)C(=O)N[C@@H](CCCNC(=N)N)C(=O)N[C@@H](Cc1c[nH]c2ccccc12)C(=O)N[C@@H](CCC(N)=O)C(=O)N[C@@H](Cc1c[nH]c2ccccc12)C(=O)O (some centres unmarked) [TCO-CPP-RRWQW] (X1-RRWQW-OH) | completely inhibited activity | completely inhibited activity | completely inhibited nuclease activity | 13% |
